Source: paper PMC6750104, “(−)- and (+)-Securidanes A and B, Natural Triarylmethane Enantiomers: Structure and Bioinspired Total Synthesis” (Research, 2018)

Molecular target: T1, PTP1B enzyme (GST-PTP1B) (Homo sapiens, UniProt P18031)
T1 sequence (P18031 1-435): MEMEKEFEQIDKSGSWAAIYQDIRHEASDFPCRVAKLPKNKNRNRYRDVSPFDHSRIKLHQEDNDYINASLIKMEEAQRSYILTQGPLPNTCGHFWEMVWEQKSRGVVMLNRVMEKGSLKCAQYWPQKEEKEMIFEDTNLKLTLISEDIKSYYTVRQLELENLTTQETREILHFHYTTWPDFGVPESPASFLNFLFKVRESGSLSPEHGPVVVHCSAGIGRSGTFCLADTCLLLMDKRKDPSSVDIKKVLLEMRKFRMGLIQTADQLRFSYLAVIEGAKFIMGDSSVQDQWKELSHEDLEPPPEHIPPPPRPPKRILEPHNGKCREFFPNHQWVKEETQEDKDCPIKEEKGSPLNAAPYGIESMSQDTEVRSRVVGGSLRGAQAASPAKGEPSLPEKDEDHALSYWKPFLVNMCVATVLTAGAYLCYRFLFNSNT
Test: PTP1B inhibition assay (colorimetric, pNPP substrate)
Details: IC50, inhibitory effect on PTP1B enzyme, in vitro colorimetric assay, 2 mmol/L pNPP, 30 nmol/L GST-PTP1B, pH 6.5, 30 °C

Structure (SMILES): COc1cc(O)c([C@H](c2ccccc2)c2ccc3c(c2OC)OCO3)c(-c2ccccc2)c1 [Compound 1, (−)-Securidane A]
- IC50: 15.6 ± 1.37 µM

Structure (SMILES): COc1cc(O)c([C@@H](c2ccccc2)c2ccc3c(c2OC)OCO3)c(-c2ccccc2)c1 [Compound 2, (+)-Securidane A]
- IC50: 12.6 ± 3.68 µM
